# Laboratory results from the supplement of paper PMC8728848.
# The other results are listed elsewhere or left out.
# B1: SP16664B-bot-474-25-474 (Bacteroides ovatus) (protein)
# chain: CEEDIEIGNKIDESSYLASTQLSGLLLDENTNKNSSVIELRNNEYSTNVVFRLSKLPQKGVDVQIAVEESYAAIYNTIHETDFEVFPAANVKIANNGTFVLAPDDKVTPSVKVTLTAFDGMEEDKTYIVPLTVTSSTEGVTFTETSKHMVLLVQDYRNKPNTNKGEDAVQTVLYFEVNDTNPLNALEFLTESGKYFFDHIVLFAANINWDPEKQRVYLANNENVQFLLDNNDKYLQPLRKAGMKIIISILGNHDEAGVAQLSDMGAREFARELAAYCRAYNLDGVAFDDEYSNSPDLSNPWLASPSAYAGSRLMYECKAVMPEKIVSLYNLGNMYSSSLQVIDGIEPGQYCDYAVADYGGAAGPGTGMTLKQCAGMSIELRRGSGNSSESTARSRKEAGYGYYMFFALDPSLYGSQVYRCQSVCKGLYDETLVYPSYYYKKNSTEREAIN
# How the values were obtained:
# Assay in all cases: glycan array binding signal (z-score within array); higher = stronger binding
# Conditions in all cases: glycan notation: IUPAC condensed, linker removed
# [1] = target: GlcNAc(a1-6)Gal(b1-4)GlcNAc
# How it was run: (§1)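 Arrays were curated from the Consortium for Functional Glycomics database, 3228 in total, and kept only where the protein sequence was available. Binding is expressed as a within-array Z-score. This score was averaged across arrays of the same protein sequence at different concentrations or buffers and across linkers, and negative values can be read as non-binding.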
# [2] = target: GlcNAc(b1-2)Gal(b1-3)GalNAc
# How it was run: as §1
# [3] = target: GlcNAc(b1-2)Man(a1-3)[GlcNAc(b1-2)Man(a1-6)]Man(b1-4)GlcNAc(b1-4)GlcNAc
# How it was run: as §1
# [4] = target: GlcNAc(b1-2)Man(a1-3)[GlcNAc(b1-2)Man(a1-6)]Man(b1-4)GlcNAc(b1-4)[Fuc(a1-6)]GlcNAc
# How it was run: as §1
# [5] = target: GlcNAc(b1-2)Man(a1-3)[GlcNAc(b1-4)][GlcNAc(b1-2)Man(a1-6)]Man(b1-4)GlcNAc(b1-4)GlcNAc
# How it was run: as §1
# [6] = target: GlcNAc(b1-2)Man(a1-3)[GlcNAc(b1-4)][GlcNAc(b1-2)Man(a1-6)]Man(b1-4)GlcNAc(b1-4)[Fuc(a1-6)]GlcNAc
# How it was run: as §1
# [7] = target: GlcNAc(b1-2)[GlcNAc(b1-4)]Man(a1-3)[GlcNAc(b1-2)Man(a1-6)]Man(b1-4)GlcNAc(b1-4)GlcNAc
# How it was run: as §1
# [8] = target: GlcNAc(b1-2)[GlcNAc(b1-4)]Man(a1-3)[GlcNAc(b1-4)][GlcNAc(b1-2)Man(a1-6)]Man(b1-4)GlcNAc(b1-4)GlcNAc
# How it was run: as §1
# [9] = target: GlcNAc(b1-2)[GlcNAc(b1-4)]Man(a1-3)[GlcNAc(b1-4)][GlcNAc(b1-2)[GlcNAc(b1-6)]Man(a1-6)]Man(b1-4)GlcNAc(b1-4)GlcNAc
# How it was run: as §1
# [10] = target: GlcNAc(b1-2)[GlcNAc(b1-4)]Man(a1-3)[GlcNAc(b1-4)][GlcNAc(b1-2)[GlcNAc(b1-6)]Man(a1-6)]Man(b1-4)GlcNAc(b1-4)[Fuc(a1-6)]GlcNAc
# How it was run: as §1
# [11] = target: GlcNAc(b1-2)[GlcNAc(b1-6)]Man(a1-6)[GlcNAc(b1-2)Man(a1-3)]Man(b1-4)GlcNAc(b1-4)GlcNAc
# How it was run: as §1
# [12] = target: GlcNAc(b1-2)[GlcNAc(b1-6)]Man(a1-6)[GlcNAc(b1-2)Man(a1-3)]Man(b1-4)GlcNAc(b1-4)[Fuc(a1-6)]GlcNAc
# How it was run: as §1
# [13] = target: GlcNAc(b1-2)[GlcNAc(b1-6)]Man(a1-6)[GlcNAc(b1-4)][GlcNAc(b1-2)Man(a1-3)]Man(b1-4)GlcNAc(b1-4)GlcNAc
# How it was run: as §1
# [14] = target: GlcNAc(b1-3)Fuc
# How it was run: as §1
# [15] = target: GlcNAc(b1-3)Gal
# How it was run: as §1
# [16] = target: GlcNAc(b1-3)Gal(b1-3)GalNAc
# How it was run: as §1
# [17] = target: GlcNAc(b1-3)Gal(b1-4)Glc
# How it was run: as §1
# [18] = target: GlcNAc(b1-3)Gal(b1-4)GlcNAc
# How it was run: as §1
# [19] = target: GlcNAc(b1-3)Gal(b1-4)GlcNAc(b1-2)Man(a1-3)[GlcNAc(b1-3)Gal(b1-4)GlcNAc(b1-2)Man(a1-6)]Man(b1-4)GlcNAc(b1-4)GlcNAc
# How it was run: as §1
# [20] = target: GlcNAc(b1-3)Gal(b1-4)GlcNAc(b1-2)Man(a1-3)[GlcNAc(b1-3)Gal(b1-4)GlcNAc(b1-2)Man(a1-6)]Man(b1-4)GlcNAc(b1-4)[Fuc(a1-6)]GlcNAc
# How it was run: as §1
# [21] = target: GlcNAc(b1-3)Gal(b1-4)GlcNAc(b1-2)[GlcNAc(b1-3)Gal(b1-4)GlcNAc(b1-6)]Man(a1-6)[GlcNAc(b1-3)Gal(b1-4)GlcNAc(b1-2)Man(a1-3)]Man(b1-4)GlcNAc(b1-4)GlcNAc
# How it was run: as §1
# [22] = target: GlcNAc(b1-3)Gal(b1-4)GlcNAc(b1-3)Gal(b1-4)GlcNAc
# How it was run: as §1
# [23] = target: GlcNAc(b1-3)Gal(b1-4)GlcNAc(b1-3)Gal(b1-4)GlcNAc(b1-2)Man(a1-3)[GlcNAc(b1-3)Gal(b1-4)GlcNAc(b1-3)Gal(b1-4)GlcNAc(b1-2)Man(a1-6)]Man(b1-4)GlcNAc(b1-4)GlcNAc
# How it was run: as §1
# [24] = target: GlcNAc(b1-3)Gal(b1-4)GlcNAc(b1-3)Gal(b1-4)GlcNAc(b1-2)Man(a1-3)[GlcNAc(b1-3)Gal(b1-4)GlcNAc(b1-3)Gal(b1-4)GlcNAc(b1-2)Man(a1-6)]Man(b1-4)GlcNAc(b1-4)[Fuc(a1-6)]GlcNAc
# How it was run: as §1
# [25] = target: GlcNAc(b1-3)Gal(b1-4)GlcNAc(b1-3)Gal(b1-4)GlcNAc(b1-2)[GlcNAc(b1-3)Gal(b1-4)GlcNAc(b1-3)Gal(b1-4)GlcNAc(b1-6)]Man(a1-6)[GlcNAc(b1-3)Gal(b1-4)GlcNAc(b1-3)Gal(b1-4)GlcNAc(b1-2)Man(a1-3)]Man(b1-4)GlcNAc(b1-4)[Fuc(a1-6)]GlcNAc
# How it was run: as §1
# [26] = target: GlcNAc(b1-3)Gal(b1-4)GlcNAc(b1-3)Gal(b1-4)GlcNAc(b1-3)Gal(b1-4)GlcNAc(b1-2)Man(a1-3)[GlcNAc(b1-3)Gal(b1-4)GlcNAc(b1-3)Gal(b1-4)GlcNAc(b1-3)Gal(b1-4)GlcNAc(b1-2)Man(a1-6)]Man(b1-4)GlcNAc(b1-4)GlcNAc
# How it was run: as §1
# [27] = target: GlcNAc(b1-3)Gal(b1-4)GlcNAc(b1-3)Gal(b1-4)GlcNAc(b1-3)Gal(b1-4)GlcNAc(b1-2)Man(a1-3)[GlcNAc(b1-3)Gal(b1-4)GlcNAc(b1-3)Gal(b1-4)GlcNAc(b1-3)Gal(b1-4)GlcNAc(b1-2)Man(a1-6)]Man(b1-4)GlcNAc(b1-4)[Fuc(a1-6)]GlcNAc
# How it was run: as §1
# [28] = target: GlcNAc(b1-3)Gal(b1-4)GlcNAc(b1-3)Gal(b1-4)GlcNAc(b1-3)Gal(b1-4)GlcNAc(b1-2)[GlcNAc(b1-3)Gal(b1-4)GlcNAc(b1-3)Gal(b1-4)GlcNAc(b1-3)Gal(b1-4)GlcNAc(b1-6)]Man(a1-6)[GlcNAc(b1-3)Gal(b1-4)GlcNAc(b1-3)Gal(b1-4)GlcNAc(b1-3)Gal(b1-4)GlcNAc(b1-2)Man(a1-3)]Man(b1-4)GlcNAc(b1-4)[Fuc(a1-6)]GlcNAc
# How it was run: as §1
# [29] = target: GlcNAc(b1-3)Gal(b1-4)GlcNAc(b1-3)Gal(b1-4)GlcNAc(b1-3)Gal(b1-4)GlcNAc(b1-3)Gal(b1-4)GlcNAc(b1-2)Man(a1-3)[GlcNAc(b1-3)Gal(b1-4)GlcNAc(b1-3)Gal(b1-4)GlcNAc(b1-3)Gal(b1-4)GlcNAc(b1-3)Gal(b1-4)GlcNAc(b1-2)Man(a1-6)]Man(b1-4)GlcNAc(b1-4)GlcNAc
# How it was run: as §1
# [30] = target: GlcNAc(b1-3)Gal(b1-4)GlcNAc(b1-3)Gal(b1-4)GlcNAc(b1-3)Gal(b1-4)GlcNAc(b1-3)Gal(b1-4)GlcNAc(b1-2)Man(a1-3)[GlcNAc(b1-3)Gal(b1-4)GlcNAc(b1-3)Gal(b1-4)GlcNAc(b1-3)Gal(b1-4)GlcNAc(b1-3)Gal(b1-4)GlcNAc(b1-2)Man(a1-6)]Man(b1-4)GlcNAc(b1-4)[Fuc(a1-6)]GlcNAc
# How it was run: as §1
# [31] = target: GlcNAc(b1-3)Gal(b1-4)GlcNAc(b1-3)Gal(b1-4)GlcNAc(b1-3)Gal(b1-4)GlcNAc(b1-3)Gal(b1-4)GlcNAc(b1-2)[GlcNAc(b1-3)Gal(b1-4)GlcNAc(b1-3)Gal(b1-4)GlcNAc(b1-3)Gal(b1-4)GlcNAc(b1-3)Gal(b1-4)GlcNAc(b1-6)]Man(a1-6)[GlcNAc(b1-3)Gal(b1-4)GlcNAc(b1-3)Gal(b1-4)GlcNAc(b1-3)Gal(b1-4)GlcNAc(b1-3)Gal(b1-4)GlcNAc(b1-2)Man(a1-3)]Man(b1-4)GlcNAc(b1-4)[Fuc(a1-6)]GlcNAc
# How it was run: as §1
# [32] = target: GlcNAc(b1-3)Gal(b1-4)GlcNAc(b1-3)Gal(b1-4)GlcNAc(b1-3)GalNAc
# How it was run: as §1
# [33] = target: GlcNAc(b1-3)Gal(b1-4)GlcNAc(b1-3)GalNAc
# How it was run: as §1
# [34] = target: GlcNAc(b1-3)Gal(b1-4)GlcNAc(b1-3)[GlcNAc(b1-3)Gal(b1-4)GlcNAc(b1-3)]GalNAc
# How it was run: as §1
# [35] = target: GlcNAc(b1-3)Gal(b1-4)GlcNAc(b1-6)[Gal(b1-3)]GalNAc
# How it was run: as §1
# [36] = target: GlcNAc(b1-3)Gal(b1-4)GlcNAc(b1-6)[GlcNAc(b1-3)Gal(b1-3)]GalNAc
# How it was run: as §1
# [37] = target: GlcNAc(b1-3)Gal(b1-4)GlcNAc(b1-6)[GlcNAc(b1-3)]Gal(b1-4)GlcNAc
# How it was run: as §1
binder,measurement,setting,value
B1,glycan array binding signal (z-score),[1],-0.412
same,glycan array binding signal (z-score),[2],-0.331
same,glycan array binding signal (z-score),[3],-0.424
same,glycan array binding signal (z-score),[4],-0.542
same,glycan array binding signal (z-score),[5],-0.294
same,glycan array binding signal (z-score),[6],-0.382
same,glycan array binding signal (z-score),[7],0.16
same,glycan array binding signal (z-score),[8],-0.088
same,glycan array binding signal (z-score),[9],-0.186
same,glycan array binding signal (z-score),[10],-0.363
same,glycan array binding signal (z-score),[11],-0.171
same,glycan array binding signal (z-score),[12],-0.117
same,glycan array binding signal (z-score),[13],-0.293
same,glycan array binding signal (z-score),[14],-0.38
same,glycan array binding signal (z-score),[15],0.092
same,glycan array binding signal (z-score),[16],0.854
same,glycan array binding signal (z-score),[17],-0.509
same,glycan array binding signal (z-score),[18],-0.365
same,glycan array binding signal (z-score),[19],0.008
same,glycan array binding signal (z-score),[20],0.352
same,glycan array binding signal (z-score),[21],0.178
same,glycan array binding signal (z-score),[22],0.239
same,glycan array binding signal (z-score),[23],0.873
same,glycan array binding signal (z-score),[24],11.2
same,glycan array binding signal (z-score),[25],-0.22
same,glycan array binding signal (z-score),[26],0.76
same,glycan array binding signal (z-score),[27],0.462
same,glycan array binding signal (z-score),[28],0.018
same,glycan array binding signal (z-score),[29],-0.189
same,glycan array binding signal (z-score),[30],0.334
same,glycan array binding signal (z-score),[31],0.26
same,glycan array binding signal (z-score),[32],-0.379
same,glycan array binding signal (z-score),[33],0.102
same,glycan array binding signal (z-score),[34],-0.158
same,glycan array binding signal (z-score),[35],1.57
same,glycan array binding signal (z-score),[36],1.42
same,glycan array binding signal (z-score),[37],-0.162
